Laboratory results from publication PMC5855594 (2018).
Blank lines part the entries; values can stand above or below the binder they belong to.

Key:
BSA neo-glycoprotein 12 = BSA neo-glycoprotein 12 (Bos taurus, UniProt P02769); experiment: competitive ELISA
BSA neo-glycoprotein 9 [1] = target: T1, BSA neo-glycoprotein 9 (Bos taurus, UniProt P02769); experiment: ELISA
BSA neo-glycoprotein 9 [2] = target: T1, BSA neo-glycoprotein 9; experiment: competitive ELISA
BSA neo-glycoprotein 11 = BSA neo-glycoprotein 11 (Bos taurus, UniProt P02769); experiment: competitive ELISA
BSA neo-glycoprotein 10 [3] = target: T2, BSA neo-glycoprotein 10 (Bos taurus, UniProt P02769); experiment: ELISA
BSA neo-glycoprotein 10 [4] = target: T2, BSA neo-glycoprotein 10; experiment: competitive ELISA
T2 sequence (P02769 25-607): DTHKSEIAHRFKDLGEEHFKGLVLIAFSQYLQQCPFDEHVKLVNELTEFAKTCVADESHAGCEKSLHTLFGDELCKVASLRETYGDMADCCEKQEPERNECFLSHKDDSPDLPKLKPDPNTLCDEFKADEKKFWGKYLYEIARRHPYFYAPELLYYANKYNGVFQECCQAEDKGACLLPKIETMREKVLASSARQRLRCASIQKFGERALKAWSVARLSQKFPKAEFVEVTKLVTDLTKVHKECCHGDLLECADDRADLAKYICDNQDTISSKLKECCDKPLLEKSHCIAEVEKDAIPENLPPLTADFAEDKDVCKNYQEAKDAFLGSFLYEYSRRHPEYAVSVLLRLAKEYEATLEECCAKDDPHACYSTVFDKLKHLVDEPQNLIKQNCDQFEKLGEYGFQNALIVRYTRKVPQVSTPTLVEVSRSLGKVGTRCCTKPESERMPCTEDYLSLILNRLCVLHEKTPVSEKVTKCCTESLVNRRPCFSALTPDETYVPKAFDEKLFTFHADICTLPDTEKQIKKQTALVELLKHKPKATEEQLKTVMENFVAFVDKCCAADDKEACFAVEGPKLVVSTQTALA

T1 sequence (P02769 25-607): as above
Sequence of BSA neo-glycoprotein 11 (P02769 25-607): as above
Sequence of BSA neo-glycoprotein 12 (P02769 25-607): as above

B1: Galectin-3 (protein)
chain: not shown
modifications: BSA conjugated with LacNAc-LacNAc (glycan 4)
IC50 (BSA neo-glycoprotein 12): 0.031 µM

B2: Galectin-3 (protein)
chain: not shown
modifications: BSA conjugated with LacdiNAc (glycan 1)
Kd (BSA neo-glycoprotein 9 [1]): 6.29 µM | IC50 (BSA neo-glycoprotein 9 [2]): 2.03 µM

Next, values leading:

IC50 (BSA neo-glycoprotein 11): 0.011 µM
B3: Galectin-3 (protein)
chain: not shown
modifications: BSA conjugated with LacdiNAc-LacNAc (glycan 3)

Kd (BSA neo-glycoprotein 10 [3]): 4.78 µM | IC50 (BSA neo-glycoprotein 10 [4]): 0.344 µM
B4: Galectin-3 (protein)
chain: not shown
modifications: BSA conjugated with LacNAc (glycan 2)
